Article PMC4336329 (PLoS ONE, 2015)
Hit rate of the full screen: of about 310,000 compounds, about 2,200 (0.71%) showed an effect of 50% or more. Effects have a minus sign here. The list shows a part of the results.

Target: human ether-à-go-go-related gene (hERG) potassium channel (human, UniProt Q12809)
Assay: primary screen, population patch clamp on CHO cells stably expressing hERG

Chain of human ether-à-go-go-related gene (hERG) potassium channel (Q12809 whole entry, looked up): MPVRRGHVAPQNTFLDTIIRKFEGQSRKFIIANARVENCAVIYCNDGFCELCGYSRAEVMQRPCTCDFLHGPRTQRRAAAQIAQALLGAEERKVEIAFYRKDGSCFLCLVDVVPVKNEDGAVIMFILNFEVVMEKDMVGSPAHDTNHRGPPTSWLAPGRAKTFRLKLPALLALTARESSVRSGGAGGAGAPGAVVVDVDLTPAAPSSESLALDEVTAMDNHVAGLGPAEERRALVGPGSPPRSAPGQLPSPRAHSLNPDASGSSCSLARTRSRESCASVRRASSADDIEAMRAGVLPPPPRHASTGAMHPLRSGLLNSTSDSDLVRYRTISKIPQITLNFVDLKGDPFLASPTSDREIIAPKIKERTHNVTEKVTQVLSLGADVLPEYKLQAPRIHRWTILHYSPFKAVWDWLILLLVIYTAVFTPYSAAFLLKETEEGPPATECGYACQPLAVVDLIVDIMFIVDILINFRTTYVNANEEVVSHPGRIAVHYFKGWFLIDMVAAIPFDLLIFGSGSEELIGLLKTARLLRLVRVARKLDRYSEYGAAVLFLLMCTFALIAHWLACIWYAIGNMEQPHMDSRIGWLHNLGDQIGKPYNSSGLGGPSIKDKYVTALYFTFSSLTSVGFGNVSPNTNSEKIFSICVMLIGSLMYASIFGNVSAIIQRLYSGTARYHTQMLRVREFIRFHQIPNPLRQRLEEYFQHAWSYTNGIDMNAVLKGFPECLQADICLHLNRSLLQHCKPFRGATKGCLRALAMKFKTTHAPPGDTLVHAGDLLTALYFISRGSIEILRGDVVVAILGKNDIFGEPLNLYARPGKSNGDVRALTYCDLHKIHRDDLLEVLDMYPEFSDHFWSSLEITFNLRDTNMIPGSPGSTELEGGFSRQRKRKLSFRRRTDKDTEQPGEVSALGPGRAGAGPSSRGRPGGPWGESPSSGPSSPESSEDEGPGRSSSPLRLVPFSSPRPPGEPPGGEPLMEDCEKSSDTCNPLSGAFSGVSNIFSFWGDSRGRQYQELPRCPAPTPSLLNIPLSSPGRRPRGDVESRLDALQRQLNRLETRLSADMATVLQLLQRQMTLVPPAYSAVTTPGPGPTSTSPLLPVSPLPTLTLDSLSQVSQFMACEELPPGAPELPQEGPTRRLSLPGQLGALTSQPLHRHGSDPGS

SMILES | hERG current change (%, negative = inhibition) at 1uM [%]
O=C(CN1C(=O)c2ccccc2C1=O)Oc1ccc(F)cc1 | 9.1
COC(=O)Cc1c(C)c2ccc(OCc3nn[nH]n3)c(C)c2oc1=O | 6.9
Cc1cccc(OCC(=O)NCc2n[nH]c(=O)c3ccccc23)c1 | 0.313
COc1ccc(-c2cc(C(=O)NC(C(=O)O)C(C)C)c(C)o2)cc1OC (centres unmarked) | 8.32
COc1ccc(C(=O)Nc2ccnn2C2CCN(C(=O)c3cnsn3)CC2)cc1 | -8.17
Fc1cccc(CN2CCN(c3nc4nonc4nc3NC3CC3)CC2)c1 | 11.7
CCN1CCC[C@H]1CNC(=O)c1c(OC)ccc(Br)c1OC.Cl | -0.0431
CCc1nnc(NC(=O)CSc2nnc(Cc3ccccc3)o2)s1 | 16.5
CC1(C)NC(C)(C)c2nonc2/C1=N\O | 10.6
CCCCCCC(C)n1cc(C(C)=O)c(=O)[nH]c1=O (centres unmarked) | 3.04
CC(C)c1ccc(OCC(=O)Nc2ccccc2C(=O)N2CCOCC2)cc1 | 9.09
CC1=NNC(=O)C1Cc1ccccc1 (centres unmarked) | 10.1
CC(C)C(=O)Nc1sc2c(c1-c1nc3ccccc3[nH]1)CCCC2 | 2.86
COc1ccc(C(=O)O/N=C(\C)c2nccs2)cc1 | 5.08
CCCCN1CC(=O)N2[C@H]3c4cc(Cl)ccc4OC[C@@H]3[C@H](C(=O)OCC)[C@]2(C)C1=O | 17.5
O=S(=O)(CC12C3C4C5C1C2C(Br)(C43)C51OCCO1)c1ccccc1 (centres unmarked) | 5.1
CN1CCN(C(=S)SCC(=O)N2CCCc3ccccc32)CC1 | 9.45
Cc1ccc(C(=O)NN2C(=O)C3C(C2=O)C2C=CC3C23CC3)cc1 (centres unmarked) | 11.3
CCCC(=O)Nc1ccc(-c2nc3cc(C)ccc3o2)cc1 | 8.33
COc1ccc2oc(C(=O)CCC(=O)O)c(N)c2c1 | 10.2
Cc1ccc(NC(=O)CC2SC(=Nc3ccc(O)cc3)NC2=O)cc1 (centres unmarked) | 15.6
Brc1cccc(/C=N\n2cnnc2)c1 | 12.8
Cc1ccccc1CS(=O)(=O)c1snnc1C | 8.71

SMILES | hERG current change (%, negative = inhibition) at 1uM [%]
CCOC(=O)C1=C(C)Nc2ccccc2N=C1NC(=O)c1oc2ccccc2c1COC | -5.4
COc1ccccc1CNC(=O)c1c(O)c2cc(OC)c(OC)cc2[nH]c1=O | 11
CC(=O)N1CCc2c(sc(NC(=O)c3cccc(N4C(=O)CCC4=O)c3)c2C(N)=O)C1 | 10.5
O=C(c1cc(N2CCOCC2)c(F)cc1[N+](=O)[O-])N1CCOCC1 | 12.6
COc1ccc(Br)cc1C(=O)Nc1cccc(C)c1 | 8.3
CC(C)(C)c1ccc(OCC(=O)N(c2ccccn2)C2CCCCC2)cc1 | -6.01
O=C(CCCOC(=O)c1ccc(O)cc1O)c1ccccc1 | 4.12
COc1ccc(/C=N/Nc2ncc(C(F)(F)F)cc2Cl)cc1OC | 22.2
CC1CCC2(CC1)NC(=O)c1ccccc1O2 (centres unmarked) | 5.51
CCc1ccccc1N(CC(=O)N1CCN(c2ccccc2)CC1)S(C)(=O)=O | 5.52
Cc1ccc(CCNC(=O)c2cc(S(=O)(=O)N3CCCC3)cn2C)cc1 | 0.568
Cc1ccc([N+](=O)[O-])cc1N/C=C/C(=O)c1ccco1 | 8.52
COc1cc(/C=C(\C#N)C(=O)Nc2ccc(C(=O)O)cc2)ccc1OC(=O)c1cccc(F)c1 | 11.6
Clc1ccc(Cc2nc(-c3ccncc3)no2)cc1 | 1.72
CCN(CC)C(=O)c1cc(-c2ccccc2OC)on1 | -1.27
CCc1cccc(CC)c1NC(=S)/C(=C(\[O-])c1ccc(Cl)s1)[n+]1ccccc1 | 4.02
CCCN(CC(=O)Nc1ccccc1OC)C(=O)C1CCCC1 | 9.86
O=C1COc2ccc(C(=O)CSc3nnc(-c4cccs4)n3Cc3ccccc3)cc2N1 | -3.8
COc1ccc(-c2csc3nc(-c4ccccc4F)oc(=O)c23)cc1 | 11.3
CC(=O)Nc1ccc2nc(-c3ccc(Br)o3)[nH]c2c1 | 16.2
CC1c2cc3c(cc2CCN1S(=O)(=O)c1ccccc1)OCCCO3 (centres unmarked) | 8.28
CC(=O)c1sc(NC(=O)c2cccc3ccccc23)nc1C | 10.2
Cc1ccc(NC(=O)Nc2cc(Cl)ccc2C2COC(=O)C2=N)cc1 (centres unmarked) | 13.1

SMILES | hERG current change (%, negative = inhibition) at 1uM [%]
Cc1nc(-c2ccc(S(=O)(=O)N3CCOCC3)cc2)cs1 | 12.1
CCOC(=O)CSc1nnc(CNc2ccc(Cl)cc2)n1-c1ccccc1 | 5.58
CCCCCCn1c(N2CCN(c3ccccc3)CC2)nc2c1c(=O)[nH]c(=O)n2C | -20.5
Nc1ncnc(Sc2ccccc2)c1[N+](=O)[O-] | 7.4
Cc1ccc(NS(=O)(=O)c2ccc3c(c2)NC(=O)C(C)C(=O)N3)cc1C (centres unmarked) | 9.26
CCc1c(C(=O)Nc2ccc(OC)c(Cl)c2)[nH]c(C)c1C(C)=O | -1.95
COC(=O)c1cccc(NC(=O)CSCc2ccccc2)c1 | 10.1
COc1ccccc1NS(=O)(=O)c1ccc(NC(=O)c2ccncc2)cc1 | 2.55
COc1cccc2cc3c(=O)oc4ccccc4c3nc12 | -1.32
CCCNc1c(NS(=O)(=O)c2cccs2)c(=O)oc2ccccc12 | 4.34
CCc1ccc(-c2cc(C)no2)cc1S(=O)(=O)N1CCN(c2ccccc2)CC1 | 5.22
Cc1cc(NC(=O)CSc2ccnc(=O)[nH]2)no1 | -4.46
COc1ccc(-c2nn3c(-c4ccccc4)nnc3s2)cc1 | 13
CN1C(=O)C(O)(CC(=O)/C=C/c2ccco2)c2cc(Br)ccc21 (centres unmarked) | 0.482
CCOc1cc(C=O)c(Br)cc1OC1CCCC1 | 11.4
Cc1cccc(N2CC(C(=O)OCc3ccc([N+](=O)[O-])cc3)CC2=O)c1 (centres unmarked) | -16.8
COc1ccc(N2C(=O)CCC(C(=O)N3CCOCC3)C2c2ccc(F)cc2)cc1 (centres unmarked) | 14.4
Cc1cc(CNC(=O)CC2C(=O)NCCN2Cc2ccccc2)nn1C (centres unmarked) | 12
COc1ccccc1N1CCN(Cc2cn[nH]c2-c2ccc(F)cc2)CC1 | -12
CC(=O)N1CCN(C(=O)C(Cc2c[nH]c3ccccc23)NC(=O)c2ccccc2Cl)CC1 (centres unmarked) | 15.9
COc1ccc(NC(=O)c2ccc3c(c2)NC(=O)CS3)cc1 | 16.6
Nc1ccc(Oc2c(Cl)cccc2Cl)nc1 | 0.173
COc1ccc(C)cc1S(=O)(=O)n1c([N+](=O)[O-])cnc1C | 13.5

SMILES | hERG current change (%, negative = inhibition) at 1uM [%]
Cc1ccn2c(CN(C)CCn3nc(C)cc3C)c(C(=O)N3CCCCCC3)nc2c1 | 25.4
CCCN1Cc2cccc(C(=O)NC(CC(=O)OCC)c3ccc(C)cc3)c2C1=O (centres unmarked) | 1.17
CC(C)c1ccc(NC(=O)CCN2C(=O)[C@@H]3Cc4ccccc4CN3C2=O)cc1 | 12.5
O=C(NC1CCCCCC1)C1CCN(C(=O)c2cccc(Cl)c2)CC1 | 8.77
Cc1ccc(N(C(=O)C2CCCO2)C2C=CS(=O)(=O)C2)cc1Cl (centres unmarked) | -2.71
COCCN(C(=O)CSc1nnc(-c2cccc(F)c2)n1N)c1c(N)n(Cc2ccccc2)c(=O)[nH]c1=O | 4.08
C#CCOCCOCCOCCNc1nc(N2CCN(C(=O)C(CCC(=O)O)n3cc(C(N)CC(C)C)nn3)CC2)nc(N2CCN(C(=O)C(Cc3cc4ccccc4[nH]3)n3cc(C(N)Cc4ccc(O)cc4)nn3)CC2)n1.Cl (centres unmarked) | 3.03
O=C(NC1CCCCC1)C(c1ccc(Cl)cc1)N(C(=O)c1ccccn1)c1cccnc1 (centres unmarked) | 22.6
COc1cccc(OCC(=O)Nc2ccc(OC)c(OC)c2)c1 | 5.26
COc1ccc(-c2ccc(CO)o2)cc1N | 15.8
COc1ccccc1OCc1nc(C#N)c(N2CCC(C(N)=O)CC2)o1 | -11.8
CCc1ccc2c(c1)C(c1ccc([N+](=O)[O-])cc1)=NNC(c1ccccc1)=N2 | 4.22
COc1ccccc1C(=O)N/N=C(\C)CC(=O)Nc1ccc(Cl)cn1 | 4.38
CSC1=NCCN1C(=O)c1ccc(C)cc1 | 6.89
COc1ccc(N(C(=O)c2cccnc2)S(=O)(=O)c2cc(OC)ccc2OC)cc1 | 0.396
CCN(CC(=O)Nc1c(F)cccc1F)C(=O)c1ccc(COc2ccccc2)cc1 | -1.13
COc1ccc([C@H]2CC(=O)C=C(c3cc(F)ccc3OC)C2)cc1 | 11.8
CC1(C)CC(=O)C(C=NCC2CCN(C(=S)Nc3cccc(Cl)c3)CC2)=C(O)C1 | -8.16
CC(NC(=O)c1cc(-c2cccs2)on1)c1ccccc1 (centres unmarked) | 15.3
CCOC(=O)C(=O)Nc1ccccc1C(N)=O | -8.85
